# Out of some 76,000 compounds screened, about 1,900 (2.5%) were called active. The inconclusive results got no clear call from the source; some entries with a clear call stand among them for comparison. Calls follow the shape of the dose curve; as a rule, active = well fitted inhibition curve with a large enough effect; inconclusive = small, poorly fitted or top-dose-only effect; inactive = flat fitted curve, though single readings scatter. Potencies of inconclusive entries are doubtful fits and often do not repeat.
# Target: Luciferin 4-monooxygenase (Photinus pyralis) (UniProt P08659)
# Sequence of UniProt P08659 (P08659 whole entry, looked up): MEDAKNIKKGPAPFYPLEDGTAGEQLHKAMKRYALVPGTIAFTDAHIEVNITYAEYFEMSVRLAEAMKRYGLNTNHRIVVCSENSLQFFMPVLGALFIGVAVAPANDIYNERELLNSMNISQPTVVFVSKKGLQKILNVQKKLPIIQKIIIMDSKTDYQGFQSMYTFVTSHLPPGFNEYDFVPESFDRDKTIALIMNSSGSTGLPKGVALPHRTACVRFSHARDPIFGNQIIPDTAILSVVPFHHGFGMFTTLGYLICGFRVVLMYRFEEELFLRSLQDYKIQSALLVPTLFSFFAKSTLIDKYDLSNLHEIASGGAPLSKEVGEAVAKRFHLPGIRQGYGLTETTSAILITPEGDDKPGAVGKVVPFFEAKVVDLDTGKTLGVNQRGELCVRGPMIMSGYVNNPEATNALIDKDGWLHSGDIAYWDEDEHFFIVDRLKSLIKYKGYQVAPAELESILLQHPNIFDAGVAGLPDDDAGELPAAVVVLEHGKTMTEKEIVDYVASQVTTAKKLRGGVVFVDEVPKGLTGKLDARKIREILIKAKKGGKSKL
# Test: Firefly luciferase inhibition profiling of diverse chemical library using quantitative high-throughput screening; also: nearly all actives have a fitted effect of over 65% in size
# Conditions: purified P. pyralis luciferase, luminescence, biochemical; series mostly up to 115 µM
# Procedure, shortened: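 Cell-free enzyme assay, 10nM P. pyralis luciferase, luciferin and ATP each at 10uM. Inhibition profiled over a 6-point titration, read as luminescence.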
# Potency is read from the fitted curve at half-maximal effect; tags tell the direction and shape of the fitted curve.
row,SMILES,Potency
1,COCC[C@]1(O)CCN(C(=O)CCCc2ccccc2)C[C@H]1C,"inconclusive: 44.7 µM [inhibitor, partial curve]"
2,COCC1CN(C)CC12CCN(C(=O)c1cc3ccccc3[nH]1)CC2 (configuration not stated),"inconclusive: 56.2 µM [inhibitor, partial curve, poor fit]"
3,C[C@H]1CN(C(=O)Nc2cc(F)cc(F)c2)C[C@@H]1c1nc(-c2ccncc2)no1,inactive
4,COc1ccc(NC(=O)c2ccc3c(c2)N(C)C2CCCCN2C3=O)c(OC)c1 (configuration not stated),"inconclusive: 44.7 µM [inhibitor, partial curve, poor fit]"
5,O=C(c1ccc2c(c1)OCO2)N1CCC(n2cc(-c3nc(-c4ccccc4)no3)nn2)C1 (configuration not stated),"inconclusive: 35.5 µM [inhibitor, partial curve]"
6,Cc1ccc(C2Cn3nnc(-c4nc(-c5cccc(Cl)c5)no4)c3CO2)c(C)c1 (configuration not stated),inactive
7,Cc1cnccc1-c1ccc(NC(=O)NC2CC2)cc1,"inconclusive: 100 µM [inhibitor, single point]"
8,CCn1cnnc1CC1CCN(C(=O)c2cc(-c3ccc(F)cc3)nc3ccccc23)CC1,active: 14.1 µM
9,O=C1CCCCC(C(=O)N2CCc3ccccc32)N1 (configuration not stated),"inconclusive: 89.1 µM [inhibitor, single point]"
10,CCCC(C)N1CC2(CCN(C(=O)Cn3nc(C)cc3C)CC2)OC1=O (configuration not stated),inactive
11,COc1ccc(-c2cc(N3CCCC(NC(=O)c4cc(OC)cc(OC)c4)C3)n[nH]2)cc1 (configuration not stated),active: 5.62 µM
12,COc1ccc(-c2noc([C@@H]3Cc4nc[nH]c4CN3C(=O)CSCC(=O)O)n2)cc1,"inconclusive: 79.4 µM [inhibitor, partial curve]"
13,O=C(c1ccc(-c2ccc(N3CCSCC3)nc2)cc1)N1CCOCC1,"inconclusive: 20 µM [inhibitor, partial curve]"
14,O=C(NCc1cccc(Cl)c1)C1CCN(C(=O)c2ncn3c2COC(c2ccccc2)C3)CC1 (configuration not stated),active: 20 µM
15,CC(C)NC(=O)N(C1CC1)C1CCOC2(CCN(C(=O)c3cc4ccccc4[nH]3)CC2)C1 (configuration not stated),"inconclusive: 17.8 µM [inhibitor, full curve, poor fit]"
16,CCN1C(=O)CCC2(C(=O)NCCc3c[nH]c4ccc(OC)cc34)CCCC=C12 (configuration not stated),"inconclusive: 50.1 µM [inhibitor, partial curve]"
17,Cc1ccc(-c2ncc3c(n2)OCCN(Cc2ccc(F)cc2F)C3=O)cc1,active: 3.16 µM
18,Oc1ccc(-c2cc3c(cn2)CN(Cc2ccccc2)CCN3)cc1F,active: 25.1 µM
19,COC(=O)c1ccc2nc(CO[C@H]3CN(Cc4ccc5ccccc5n4)C[C@H]3F)[nH]c2c1,"inconclusive: 89.1 µM [inhibitor, partial curve, poor fit]"
20,O=c1cc2c(nn1Cc1cccc(Br)c1)CCCCC2,active: 31.6 µM
21,COc1ncc(-c2ccc3ncn(C4CC4)c(=O)c3n2)cn1,"inconclusive: 89.1 µM [inhibitor, partial curve, poor fit]"

row,SMILES,Potency
1,CNC(=O)[C@@H]1CN(C(=O)c2cc3ccccc3[nH]2)C[C@H]1c1nc(C)no1,"inconclusive: 35.5 µM [inhibitor, partial curve]"
2,COc1ccc(-c2noc(C(=O)O)c2[C@@H](C)NC(=O)Nc2ccccc2)cc1,"inconclusive: 79.4 µM [inhibitor, partial curve]"
3,Cc1ccc(NC(=O)c2ccc3c(c2)N(C)C2CCCCN2C3=O)cc1F (configuration not stated),"inconclusive: 31.6 µM [inhibitor, partial curve]"
4,O=C(Nc1ccc(F)cc1)c1cnn2ncccc12,"inconclusive: 44.7 µM [inhibitor, partial curve]"
5,COCCn1ccc2c(C3=CCOCC3)nc(-c3ccc4c(c3)CNC4=O)cc21,"inconclusive: 70.8 µM [inhibitor, partial curve]"
6,O=C(CC1CCN(C(=O)C2CCC2)C1)NC1CC1 (configuration not stated),inactive
7,COc1ccc(Nc2ncc(-c3cnn(C)c3)c3c2OCC3)cc1,active: 25.1 µM
8,O=C(NC1CCN(c2cc(-c3cccs3)[nH]n2)C1)c1cc2ccccc2[nH]1 (configuration not stated),"inconclusive: 22.4 µM [inhibitor, full curve]"
9,O[C@H]1CC[C@@H](Cc2cc(-c3ccc(F)cc3)on2)O[C@@H]1CNCc1ccccn1,"inconclusive: 112 µM [inhibitor, partial curve]"
10,COc1ccc(CC(=O)N[C@H]2CCOC[C@H]2C2CCOCC2)c(OC)c1,inactive
11,CC(C)c1noc(-c2cccn3c(CNC(=O)c4ccc(C(C)(C)C)cc4)nnc23)n1,"inconclusive: 12.6 µM [inhibitor, full curve]"
12,Cn1nccc1-c1ccc2ncn(-c3ccccc3)c(=O)c2n1,"inconclusive: 79.4 µM [inhibitor, partial curve]"
13,Cc1cc(-c2nc3ccncc3[nH]2)c(C)[nH]1,"inconclusive: 126 µM [inhibitor, partial curve]"
14,Cc1oc(C(O)c2cccc(O)c2)nc1C(=O)Nc1ccccc1 (configuration not stated),"inconclusive: 89.1 µM [inhibitor, partial curve]"
15,CC(C)c1cccc(NC(=O)C2CCN(C(=O)c3ncn4c3COC(c3ccccc3)C4)CC2)c1 (configuration not stated),active: 3.55 µM
16,O=C(Nc1ccccc1)C1CCN(C(=O)c2ncn3c2COC(c2ccc(F)cc2)C3)CC1 (configuration not stated),"inconclusive: 50.1 µM [inhibitor, partial curve, poor fit]"
17,CCC1COCCN1C(=O)c1coc(COc2ccc3c(c2)OCO3)n1 (configuration not stated),"inconclusive: 70.8 µM [inhibitor, single point]"
18,O=C(NC1CCCN(c2cc(-c3ccc(F)cc3)[nH]n2)C1)c1cccnc1 (configuration not stated),"inconclusive: 50.1 µM [inhibitor, partial curve]"
19,Cc1ncsc1C(=O)N1CC(COc2ccccc2)C2(C1)CN(c1ccccc1)C2 (configuration not stated),inactive
20,Cc1ccc(-c2cc3c(ccn3C(C)C)c(C(=O)NCc3c(C)cc(C)[nH]c3=O)n2)cn1,"inconclusive: 0.708 µM [inhibitor, full curve]"
21,NC(=O)Cn1ccc2cc(OCC3CCN(C(=O)C4CC4)CC3)cnc21,"inconclusive: 70.8 µM [inhibitor, partial curve, poor fit]"
